Patent US11951108B2, “Combination therapy for treating cancer” (Epizyme, Inc., priority 2016, dated 2024)
Like-named read-outs stand apart in the source and are kept apart here. Blank lines part the entries; values can stand above or below the compound they belong to.

Tests used:
[1] = system: COV504; details: 4+3 model
[2] = system: JH)S-4; assay: In vitro combination study, ovarian cancer cell line JH)S-4; details: 4+3 model
[3] = system: MDA-MB-436; assay: In vitro combination study, breast cancer cell line MDA-MB-436; format: cell-based; details: ER/PR −/−, HER2 −, 7 day pre-treatment + 6 day co-treatment
[4] = system: CAOV-3; assay: In vitro combination study, ovarian cancer cell line CAOV-3; format: cell-based; details: 4+3 model
[5] = system: SKOV3; assay: In vitro combination study, ovarian cancer cell line SKOV3; details: 4+3 model
[6] = system: CAMA-1; assay: In vitro combination study, breast cancer cell line CAMA-1; format: cell-based; details: ER/PR +/−, HER2 +, 7 day pre-treatment + 6 day co-treatment
[7] = system: MDA-MB-468; assay: In vitro combination study, breast cancer cell line MDA-MB-468; details: ER/PR −/−, HER2 −, 7 day pre-treatment + 6 day co-treatment
[8] = system: HCC1143; assay: In vitro combination study, breast cancer cell line HCC1143; details: ER/PR −/−, HER2 −, 7 day pre-treatment + 6 day co-treatment
[9] = system: HCC70; details: ER/PR −/−, 7 day pre-treatment + 6 day co-treatment
[10] = system: ES-2; assay: In vitro combination study, ovarian cancer cell line ES-2; details: 4+3 model
[11] = system: A2780; assay: In vitro combination study, ovarian cancer cell line A2780; details: 4+3 model
[12] = system: BT-20; assay: In vitro combination study, breast cancer cell line BT-20; details: ER/PR −/−, HER2 −, 7 day pre-treatment + 6 day co-treatment
[13] = system: SNU840; assay: In vitro combination study, ovarian cancer cell line SNU840; details: 4+3 model
[14] = system: ZR-75-1; assay: In vitro combination study, breast cancer cell line ZR-75-1; details: ER/PR +/+, HER2 +, 7 day pre-treatment + 6 day co-treatment
[15] = system: KURAMOCHI; assay: In vitro combination study, ovarian cancer cell line KURAMOCHI; details: 4+3 model
[16] = system: SK-BR-3; assay: In vitro combination study, breast cancer cell line SK-BR-3; format: cell-based; details: ER/PR −/−, HER2 +, 7 day pre-treatment + 6 day co-treatment
[17] = system: HCC1419; assay: In vitro combination study, breast cancer cell line HCC1419; details: ER/PR −/−, HER2 +, 7 day pre-treatment + 6 day co-treatment
[18] = system: SUM159PT; assay: In vitro combination study, breast cancer cell line SUM159PT; details: ER/PR −/−, HER2 −, 7 day pre-treatment + 6 day co-treatment
[19] = system: DU4475; assay: In vitro combination study, breast cancer cell line DU4475; details: ER/PR −/−, HER2 −, 7 day pre-treatment + 6 day co-treatment
[20] = system: HCC1954; assay: In vitro combination study, breast cancer cell line HCC1954; format: cell-based; details: ER/PR −/−, HER2 +, 7 day pre-treatment + 6 day co-treatment
[21] = system: BT549; assay: In vitro combination study, breast cancer cell line BT549; details: ER/PR −/−, HER2 −, 7 day pre-treatment + 6 day co-treatment
[22] = system: OV-90; assay: In vitro combination study, ovarian cancer cell line OV-90; details: 4+3 model
[23] = system: OVMANA; assay: In vitro combination study, ovarian cancer cell line OVMANA; details: 4+3 model
[24] = system: TOV112D; assay: In vitro combination study, ovarian cancer cell line TOV112D; details: 4+3 model
[25] = system: COV434; details: 4+3 model
[26] = system: OVCAR-3; assay: In vitro combination study, ovarian cancer cell line OVCAR-3; format: cell-based; details: 4+3 model
[27] = system: SKOV3
[28] = system: JH)S-4
[29] = system: A2780
[30] = system: OAW42; assay: In vitro combination study, ovarian cancer cell line OAW42; details: 4+3 model
[31] = system: HCC1806; assay: In vitro combination study, breast cancer cell line HCC1806; format: cell-based; details: ER/PR −/−, HER2 −, 7 day pre-treatment + 6 day co-treatment

Synergy or antagonism of second agent with tazemetostat (IC50 shift of second agent) [15]: B (Synergy > 4× IC50 shift)
Synergy or antagonism of second agent with tazemetostat (IC50 shift of second agent) [16]: C (Synergy > 2× IC50 shift)
Synergy or antagonism of second agent with tazemetostat (IC50 shift of second agent) [17]: C (Synergy > 2× IC50 shift)
Synergy or antagonism of second agent with tazemetostat (IC50 shift of second agent) [8]: C (Synergy > 2× IC50 shift)
Synergy or antagonism of second agent with tazemetostat (IC50 shift of second agent) [11]: B (Synergy > 4× IC50 shift)
Synergy or antagonism of second agent with tazemetostat (IC50 shift of second agent) [13]: B (Synergy > 4× IC50 shift)
Synergy or antagonism of second agent with tazemetostat (IC50 shift of second agent) [18]: B (Synergy > 4× IC50 shift)
Synergy or antagonism of second agent with tazemetostat (IC50 shift of second agent) [19]: B (Synergy > 4× IC50 shift)
Structure (SMILES): NC1(c2ccc(-c3nc4ccn5c(=O)[nH]nc5c4cc3-c3ccccc3)cc2)CCC1 [MK2206]

Synergy or antagonism of second agent with tazemetostat (IC50 shift of second agent) [2]: C (Synergy > 2× IC50 shift)
Synergy or antagonism of second agent with tazemetostat (IC50 shift of second agent) [24]: C (Synergy > 2× IC50 shift)
Synergy or antagonism of second agent with tazemetostat (IC50 shift of second agent) [30]: C (Synergy > 2× IC50 shift)
Synergy or antagonism of second agent with tazemetostat (IC50 shift of second agent) [5]: B (Synergy > 4× IC50 shift)
Synergy or antagonism of second agent with tazemetostat (IC50 shift of second agent) [10]: C (Synergy > 2× IC50 shift)
Structure (SMILES): CC(=O)O[C@@]12CO[C@@H]1C[C@H](O)[C@@]1(C)C(=O)[C@H](O)C3=C(C)[C@@H](OC(=O)[C@H](O)[C@@H](NC(=O)OC(C)(C)C)c4ccccc4)C[C@@](O)([C@@H](OC(=O)c4ccccc4)[C@H]21)C3(C)C [Docetaxel]

Second part, the compound before the results:

Structure (SMILES): CC(=O)Nc1cccc(-n2c(=O)n(C3CC3)c(=O)c3c(Nc4ccc(I)cc4F)n(C)c(=O)c(C)c32)c1 [Trametinib]
Synergy or antagonism of second agent with tazemetostat (IC50 shift of second agent) [1]: B (Synergy > 4× IC50 shift)
Synergy or antagonism of second agent with tazemetostat (IC50 shift of second agent) [2]: C (Synergy > 2× IC50 shift)
Synergy or antagonism of second agent with tazemetostat (IC50 shift of second agent) [3]: C (Synergy > 2× IC50 shift)
Synergy or antagonism of second agent with tazemetostat (IC50 shift of second agent) [4]: B (Synergy > 4× IC50 shift)
Synergy or antagonism of second agent with tazemetostat (IC50 shift of second agent) [5]: C (Synergy > 2× IC50 shift)
Synergy or antagonism of second agent with tazemetostat (IC50 shift of second agent) [6]: B (Synergy > 4× IC50 shift)
Synergy or antagonism of second agent with tazemetostat (IC50 shift of second agent) [7]: C (Synergy > 2× IC50 shift)
Synergy or antagonism of second agent with tazemetostat (IC50 shift of second agent) [8]: C (Synergy > 2× IC50 shift)
Synergy or antagonism of second agent with tazemetostat (IC50 shift of second agent) [9]: C (Synergy > 2× IC50 shift)
Synergy or antagonism of second agent with tazemetostat (IC50 shift of second agent) [10]: C (Synergy > 2× IC50 shift)
Synergy or antagonism of second agent with tazemetostat (IC50 shift of second agent) [11]: B (Synergy > 4× IC50 shift)
Synergy or antagonism of second agent with tazemetostat (IC50 shift of second agent) [12]: C (Synergy > 2× IC50 shift)
Synergy or antagonism of second agent with tazemetostat (IC50 shift of second agent) [13]: B (Synergy > 4× IC50 shift)
Synergy or antagonism of second agent with tazemetostat (IC50 shift of second agent) [14]: B (Synergy > 4× IC50 shift)

Structure (SMILES): N.N.[Cl][Pt][Cl] [Cisplatin]
Synergy or antagonism of second agent with tazemetostat (IC50 shift of second agent) [20]: C (Synergy > 2× IC50 shift)
Synergy or antagonism of second agent with tazemetostat (IC50 shift of second agent) [21]: C (Synergy > 2× IC50 shift)
Synergy or antagonism of second agent with tazemetostat (IC50 shift of second agent) [7]: C (Synergy > 2× IC50 shift)
Synergy or antagonism of second agent with tazemetostat (IC50 shift of second agent) [18]: C (Synergy > 2× IC50 shift)
Synergy or antagonism of second agent with tazemetostat (IC50 shift of second agent) [14]: A (Antagonism)

Structure (SMILES): Nc1ccccc1NC(=O)c1ccc(CNC(=O)OCc2cccnc2)cc1 [Entinostat]
Synergy or antagonism of second agent with tazemetostat (IC50 shift of second agent) [15]: B (Synergy > 4× IC50 shift)
Synergy or antagonism of second agent with tazemetostat (IC50 shift of second agent) [1]: C (Synergy > 2× IC50 shift)
Synergy or antagonism of second agent with tazemetostat (IC50 shift of second agent) [22]: C (Synergy > 2× IC50 shift)
Synergy or antagonism of second agent with tazemetostat (IC50 shift of second agent) [23]: C (Synergy > 2× IC50 shift)
Synergy or antagonism of second agent with tazemetostat (IC50 shift of second agent) [24]: C (Synergy > 2× IC50 shift)
Synergy or antagonism of second agent with tazemetostat (IC50 shift of second agent) [5]: C (Synergy > 2× IC50 shift)
Synergy or antagonism of second agent with tazemetostat (IC50 shift of second agent) [25]: C (Synergy > 2× IC50 shift)
Synergy or antagonism of second agent with tazemetostat (IC50 shift of second agent) [26]: C (Synergy > 2× IC50 shift)

Structure (SMILES): CC[C@@]1(O)C(=O)OCc2c1cc1n(c2=O)Cc2cc3c(CN(C)C)c(O)ccc3nc2-1 [Topotecan]
Synergy or antagonism of second agent with tazemetostat (IC50 shift of second agent) [15]: C (Synergy > 2× IC50 shift)
Synergy or antagonism of second agent with tazemetostat (IC50 shift of second agent) [27]: C (key: B: Synergy > 4× IC50 shift; Synergy > 2× IC50 shift; No Effect; Antagonism; X: Not Tested)
Synergy or antagonism of second agent with tazemetostat (IC50 shift of second agent) [1]: C (Synergy > 2× IC50 shift)
Synergy or antagonism of second agent with tazemetostat (IC50 shift of second agent) [28]: C (key: B: Synergy > 4× IC50 shift; Synergy > 2× IC50 shift; No Effect; Antagonism; X: Not Tested)
Synergy or antagonism of second agent with tazemetostat (IC50 shift of second agent) [29]: B (key: B: Synergy > 4× IC50 shift; Synergy > 2× IC50 shift; No Effect; Antagonism; X: Not Tested)

Structure (SMILES): CC#C[C@]1(O)CC[C@H]2[C@@H]3CCC4=CC(=O)CCC4=C3[C@@H](c3ccc(N(C)C)cc3)C[C@@]21C [Mifepristone]
Synergy or antagonism of second agent with tazemetostat (IC50 shift of second agent) [31]: C (Synergy > 2× IC50 shift)
